{
  "source": "PubChem BioAssay (NCATS)",
  "key": {"[1]": {"test": "P-glycoprotein substrates identified in KB-3-1 adenocarcinoma cell line, qHTS therapeutic library screen (AID 1346986); note: nearly all actives have a fitted effect of over 60% in size;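 note: potency is the fitted concentration of half-maximal effect; potency is for cytotoxicity meaning loss of cell viability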", "method_in_brief": "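Viability by CellTiter-Glo after 72 h compound exposure at 37 degree C, 5% CO2. Cytotoxic call: curve class -1.1 to -2.4, maximum response >50%, AC50 < 10 uM, compared across KB-3-1 and P-gp-overexpressing KB-8-5-11.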"}, "[2]": {"test": "P-glycoprotein substrates identified in KB-8-5-11 adenocarcinoma cell line, qHTS therapeutic library screen (AID 1346987); note: potency is the fitted concentration of half-maximal effect; nearly all actives have a fitted effect of over 65% in size", "settings": "activity change, negative = cytotoxicity: at 44.5 µM (top of the series)", "method_in_brief": "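Human cervical adenocarcinoma KB-8-5-11 cells, selected in colchicine to over-express P-gp and assayed without it, were exposed for 72 h to titrated compounds. An ATP-based luminescent viability signal gave AC50.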"}, "[3]": {"test": "Primary qHTS for inhibitors of nuclear receptor binding SET domain protein 2 (NSD2) in an RCH-ACV wild type WT cells (2C) (AID 1645877); note: nearly all actives have a fitted effect of over 70% in size; note: potency is the fitted concentration of half-maximal effect", "settings": "activity change, negative = cell killing: at 44.9 µM (top of the series) unless noted"}, "[4]": {"test": "Primary qHTS for small molecule stabilizers of the endoplasmic reticulum resident proteome: Secreted ER Calcium Modulated Protein (SERCaMP) assay (AID 1508630); note: potency is the fitted concentration of half-maximal effect", "settings": "SH-SY5Y GLuc-SERCaMP (Gaussia luciferase released on ER calcium loss) secretion, thapsigargin, luminescence; activity change, negative = inhibition: at 38.4 µM (top of the series) unless noted", "method_in_brief": "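The SH-SY5Y reporter protocol was run at 3 concentrations up to 38.3 uM (primary) or 11 concentrations (follow-up): 16 h compound, 100 nM thapsigargin for 4 h, then extracellular luciferase luminescence.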"}, "[5]": {"test": "Primary qHTS for inhibitors of nuclear receptor binding SET domain protein 2 (NSD2) in an isogenic RCH-ACV NSD2 p.E1099K mutant (9B) (AID 1645876); note: potency is the fitted concentration of half-maximal effect; nearly all actives have a fitted effect of over 70% in size", "settings": "activity change, negative = viability loss: at 44.9 µM (top of the series) unless noted"}, "[6]": {"test": "qHTS to identify inhibitors of the type 1 interferon - major histocompatibility complex class I in skeletal muscle: primary screen against the NCATS Mechanism Interrogation Plate v5.0 (MIPE) Libary (AID 1347411); note: potency is the fitted concentration of half-maximal effect; nearly all actives have a fitted effect of over 65% in size", "settings": "iHSKM cells + IFN-b, HiBiT-tagged MHC-I luminescence, 24 h; activity change, negative = inhibition: at 45.8 µM (top of the series) unless noted", "method_in_brief": "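IFN-beta-driven (4 ng/ml) HLA-B-HiBit expression in CRISPR-tagged C25cl48 myoblasts; compounds 11-pt, 1:3, max 46 uM, 24 hr exposure; lytic NanoLuc complementation luminescence.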"}, "[7]": {"target": "Phospholipid hydroperoxide glutathione peroxidase GPX4 (Homo sapiens) (UniProt P36969)", "sequence (P36969 whole entry, looked up)": "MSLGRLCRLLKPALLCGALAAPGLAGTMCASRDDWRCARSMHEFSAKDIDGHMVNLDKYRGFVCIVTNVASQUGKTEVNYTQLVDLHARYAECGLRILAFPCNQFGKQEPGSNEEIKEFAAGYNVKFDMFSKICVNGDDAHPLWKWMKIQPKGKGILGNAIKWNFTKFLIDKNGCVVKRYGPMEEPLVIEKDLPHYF", "test": "Primary qHTS Assay for Inhibitors of Recombinant Selenoprotein Glutathione Peroxidase 4 (GPX4) (AID 1845192); note: potency is the fitted concentration of half-maximal effect; nearly all actives have a fitted effect of over 65% in size", "settings": "activity change, negative = inhibition: at 50 µM (top of the series) unless noted", "method_in_brief": "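Steps: GPX4 plus compound, 30 min RT; add GR/GSH/NADPH master mix; start with cumene hydroperoxide; read 340/450 nm fluorescence at 0 and 15 min. Finals were 200 nM GPX4, 1 mM GSH, 0.5 mM CHP, 0.5 mM NADPH, 100 nM GR.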"}, "[8]": {"target": "Calcium and integrin-binding protein 1 (Homo sapiens) (UniProt Q99828)", "sequence (Q99828 whole entry, looked up)": "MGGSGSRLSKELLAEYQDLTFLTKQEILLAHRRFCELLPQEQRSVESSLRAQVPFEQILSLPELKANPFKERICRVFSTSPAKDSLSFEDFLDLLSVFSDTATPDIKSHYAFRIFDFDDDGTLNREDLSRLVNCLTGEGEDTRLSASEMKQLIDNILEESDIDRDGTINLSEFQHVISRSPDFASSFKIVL", "test": "Confirmatory qHTS for Identification of Calcium Integrin Binding Protein 1 (CIB1) Competitor (AID 1508617); note: potency is the fitted concentration of half-maximal effect; nearly all actives have a fitted effect of over 65% in size", "method_in_brief": "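Confirmatory qHTS measures displacement of a FITC-alphaIIb peptide (100 nM) from CIB1-GST (1 uM) by fluorescence polarization. Calcium-containing HEPES buffer, pH 7.4; two 15 min room-temperature incubations.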"}, "[9]": {"target": "Calcium and integrin-binding protein 1 (Homo sapiens) (UniProt Q99828)", "test": "Primary qHTS for Identification of Calcium Integrin Binding Protein 1 (CIB1) Competitor (AID 1508620); note: potency is the fitted concentration of half-maximal effect", "method_in_brief": "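Fluorescence polarization competition: GST-tagged CIB1 (1 uM final) preincubated with compound 15 min at room temperature, then FITC-labelled alphaIIb peptide (100 nM final) added. After 15 min at room temperature, polarization read at Ex 480/Em 540.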"}, "[10]": {"target": "Glutathione peroxidase 1 (Homo sapiens) (UniProt P07203)", "sequence (P07203 whole entry, looked up)": "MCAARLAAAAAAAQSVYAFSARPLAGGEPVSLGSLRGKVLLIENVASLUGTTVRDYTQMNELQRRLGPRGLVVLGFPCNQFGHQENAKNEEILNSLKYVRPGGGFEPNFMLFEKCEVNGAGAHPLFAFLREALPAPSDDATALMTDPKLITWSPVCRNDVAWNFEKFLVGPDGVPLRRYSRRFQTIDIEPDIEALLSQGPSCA", "test": "Primary qHTS Assay for Inhibitors of Recombinant Selenoprotein Glutathione Peroxidase 1 (GPX1) (AID 1845191); note: nearly all actives have a fitted effect of over 65% in size", "method_in_brief": "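GR-coupled readout: NADPH consumption tracked by fluorescence, ex 340/em 450 nm, at t=0 and after 15 min at RT. Final mix 10 nM GPX1, 1 mM GSH, 0.5 mM CHP, 0.5 mM NADPH, 100 nM GR, 0.01% BSA, following 30 min enzyme–compound preincubation.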"}},
  "note": "Inconclusive results, whose numbers are uncertain, are shown with a selection of clear calls. For some of these results: No potency is given beside an inconclusive call; the fits are too rough. Active and inactive are the calls of the source. Calls come from the whole dose curve; as a rule, active = well fitted curve in the direction sought with a large enough effect; inconclusive = small, poorly fitted or top-dose-only effect, or another doubt; inactive = no such curve, though single readings can be large; an effect the other way counts as inactive or inconclusive. Tags give direction and shape of the fitted curve.",
  "data": [
    {"smiles": "COc1cc2ncnc(Sc3nnc(C)s3)c2cc1OC", "values": [
      {"measurement": "Potency", "setting": "[1]", "result": "active: 18.4 µM"},
      {"measurement": "Potency", "setting": "[2]", "result": "active: 16.4 µM"},
      {"measurement": "Potency", "setting": "[3]", "result": "active: 3.26 µM"}
    ]},
    {"smiles": "[N-]=[N+]=N[C@]1(CO)O[C@@H](n2ccc(N)nc2=O)[C@@H](O)[C@@H]1O", "values": [
      {"measurement": "Potency", "setting": "[1]", "result": "inconclusive [inhibitor, full curve]"},
      {"measurement": "Potency", "setting": "[2]", "result": "inconclusive [inhibitor, partial curve]"},
      {"measurement": "Potency", "setting": "[3]", "result": "active: 3.66 µM"}
    ]},
    {"smiles": "O=S(=O)(O)c1ccc(Nc2ncnc3c2ncn3[C@@H]2O[C@H](CO)[C@@H](O)[C@H]2O)cc1", "values": [
      {"measurement": "Potency", "setting": "[1]", "result": "inactive"},
      {"measurement": "Potency", "setting": "[4]", "result": "inconclusive [inhibitor, full curve, poor fit]"},
      {"measurement": "Potency", "setting": "[3]", "result": "inactive"}
    ]},
    {"smiles": "COc1ccc(Cl)cc1NC(=O)Nc1cc(C)nc2ccccc12", "values": [
      {"measurement": "Potency", "setting": "[1]", "result": "inconclusive [inhibitor, single point]"},
      {"measurement": "Potency", "setting": "[2]", "result": "inconclusive [inhibitor, single point]"},
      {"measurement": "Potency", "setting": "[5]", "result": "inconclusive [inhibitor, single point]"},
      {"measurement": "Potency", "setting": "[3]", "result": "inconclusive [inhibitor, single point]"}
    ]},
    {"smiles": "Cc1noc(CN(C)c2ncnc3ccc(-c4ccc5c(c4)OCO5)cc23)n1", "values": [
      {"measurement": "Potency", "setting": "[1]", "result": "inconclusive [inhibitor, single point]"},
      {"measurement": "Potency", "setting": "[2]", "result": "inconclusive [inhibitor, partial curve]"},
      {"measurement": "Potency", "setting": "[5]", "result": "inconclusive [inhibitor, partial curve]"},
      {"measurement": "Potency", "setting": "[3]", "result": "inconclusive [inhibitor, partial curve]"}
    ]},
    {"smiles": "CN[C@@H]1C[C@H]2O[C@@](C)([C@@H]1OC)n1c3ccccc3c3c4c(c5c6ccccc6n2c5c31)C(=O)N[C@H]4O", "values": [
      {"measurement": "Potency", "setting": "[1]", "result": "inconclusive [inhibitor, partial curve, poor fit]"},
      {"measurement": "Potency", "setting": "[6]", "result": "inconclusive [inhibitor, partial curve, poor fit]"},
      {"measurement": "Potency", "setting": "[7]", "result": "inconclusive [inhibitor, single point]"}
    ]},
    {"smiles": "O=C1NC(Nc2ccccc2)=N/C1=C\\c1ccc2c(c1)OCO2", "values": [
      {"measurement": "Potency", "setting": "[1]", "result": "inconclusive [inhibitor, single point]"},
      {"measurement": "Potency", "setting": "[2]", "result": "inconclusive [inhibitor, single point]"},
      {"measurement": "Potency", "setting": "[5]", "result": "inconclusive [inhibitor, partial curve]"},
      {"measurement": "Potency", "setting": "[3]", "result": "inconclusive [inhibitor, partial curve]"}
    ]},
    {"smiles": "Cc1ccc(Cl)cc1NC(=O)c1nc[nH]c1C(=O)Nc1nc2ccccc2[nH]1", "values": [
      {"measurement": "Potency", "setting": "[1]", "result": "inactive"},
      {"measurement": "Potency", "setting": "[8]", "result": "inconclusive [inhibitor, full curve]"},
      {"measurement": "Potency", "setting": "[9]", "result": "inconclusive [inhibitor, partial curve]"},
      {"measurement": "Potency", "setting": "[3]", "result": "inactive"}
    ]},
    {"smiles": "C/C(=N\\N=C(N)N)c1ccc(NC(=O)Nc2ccc(/C(C)=N/N=C(N)N)cc2)cc1", "values": [
      {"measurement": "Potency", "setting": "[1]", "result": "inconclusive [inhibitor, single point]"},
      {"measurement": "Potency", "setting": "[2]", "result": "inconclusive [inhibitor, single point]"},
      {"measurement": "Potency", "setting": "[5]", "result": "inconclusive [inhibitor, single point]"},
      {"measurement": "Potency", "setting": "[3]", "result": "inconclusive [inhibitor, single point]"},
      {"measurement": "Potency", "setting": "[10]", "result": "inactive"}
    ]},
    {"smiles": "O=C1NC(=O)/C(=C/c2ccc(-c3ccc(F)cc3)o2)S1", "values": [
      {"measurement": "Potency", "setting": "[1]", "result": "inconclusive [inhibitor, single point]"},
      {"measurement": "Potency", "setting": "[2]", "result": "inconclusive [inhibitor, single point]"},
      {"measurement": "Potency", "setting": "[3]", "result": "inconclusive [inhibitor, partial curve, poor fit]"}
    ]},
    {"smiles": "COc1ccc2c(c1O)OC(C)(C)c1c-2ccc2c1C(=O)N(c1ccc(C(=O)c3ccccc3)cc1)C2=O", "values": [
      {"measurement": "Potency", "setting": "[1]", "result": "inactive"},
      {"measurement": "Potency", "setting": "[2]", "result": "inconclusive [inhibitor, single point]"},
      {"measurement": "Potency", "setting": "[5]", "result": "inconclusive [inhibitor, single point]"},
      {"measurement": "Potency", "setting": "[3]", "result": "inconclusive [inhibitor, single point]"}
    ]}
  ]
}
